The campaign covered roughly 1,100 compounds. About 70 (6%) were called active. Another 22% or so got no clear call; they are omitted. Calls follow the shape of the dose curve; as a rule, active = well fitted curve in the direction sought with a large enough effect; inconclusive = small, poorly fitted or top-dose-only effect, or another doubt; inactive = no such curve, though single readings can be large or run the other way. Some of the results follow.
Target: Polyunsaturated fatty acid lipoxygenase ALOX12 (Homo sapiens) (UniProt P18054)
Assay: Confirmatory qHTS assay for inhibitors of human arachidonate 12S-lipoxygenase (ALOX12): Round 2
Conditions: purified human 12-LOX, xylenol orange absorbance; at 125 µM (top of the series) unless noted
Excerpt: Assay Provider: Theodore R. Holman Ph.D. University of California, Santa Cruz, California Human lipoxygenase 12hLO is a member of the closely related lipoxygenase family of enzymes which catalyze the site-specific oxidation of arachidonic acid to various hormone precursor molecules and as such is a candidate for drug development in a variety of disease areas, such as cancer and inflammation. Inhibition of 12hLO activity was screened by utilizing arachidonic acid as a substrate. The extent of hydroperoxide product formation was measured by a secondary chromogenic reaction in which xylenol orange (XO, Sigma-Aldrich, cat. number 39,818-7) reacts with the ferric ions produced from the reaction between the hydroperoxide and ferrous ions. The Fe (III)-XO complex is characterized with red-shifted absorbance at 560 nm. A purified preparation of human 12hLO was supplied by Dr. Holman laboratory, University of California, Santa Cruz.
PROTOCOL TABLE SEQUENCE No. (e.g., 1, 2, 3, etc.); […] (e.g., Cells, Incubation, Reagent, etc.); VALUE; DESCRIPTION 1; Enzyme; 3 uL; 150 nM 12hLO enzyme solution dispensed in 1536-well Greiner black, clear bottom plates. 2; Compound; 23 nL; compounds and controls were added. 3; Incubate; 15 min; room temperature. 4; Substrate; 1 uL; 40 uM arachidonic acid (final concentration). 5; Incubate; 30 min; room temperature. 6; Reagent; 4 uL; Fe-XO solution was added to each well. 7; Incubation; 30 min; room temperature 8; Detector; absorbance; Read 1 at 405 nm absorbance using ViewLux (PerkinElmer) CCD imager. 9; Detector; absorbance; Read 2 at 573 nm absorbance using ViewLux (PerkinElmer) CCD imager. NOTES (numbers refer to sequence above) 1; 150 nM 12hLO (final concentration) in buffer solution (25 mM Hepes, 0.01% Triton X-100, pH 7.0) was dispensed in columns 1, 2, 5-48. Column 1 is neutral (100% activity). Buffer only was dispensed in columns 3 and 4 as no enzyme negative controls. The plates were covered with metal lids with gas-exchange holes. 2; Compounds were pin transferred via a Kalypsys Pin Tool (Wako USA) in column 5 - 48. Control compound was transferred in column 2, titration of nordihydroguaiaretic acid (NDGA, Sigma-Aldrich, N5023) with top concentration of 20 mM in DMSO then 1:3 dilution in duplicate. Dilution factor of 23 nL into 4 uL final assay volume. 3; Covered assay plates were incubated for 15 min at room temperature. 4; Substrate was added to start the reaction; 40 uM arachidonic acid (Sigma-Aldrich, St. Louis, MO) was dispensed throughout the plate. 6; Chromogenic detection reagent solution (divalent iron/xylenol orange, Fe-XO) was added to each well: 200 uM xylenol orange, 300 uM ferrous ammonium sulfate prepared freshly in 50 mM sulfuric acid. 8, 9; Two absorbance readouts were obtained at 405 nm and at 573 nm using a ViewLux high-throughput CCD plate imager (PerkinElmer). The 573 to 405 (Read 2 / Read 1) absorbance ratio was used to compute reaction progress.
% is scaled to controls: 0 for no effect and ±100 for the full control effect.

Chain of UniProt P18054 (P18054 whole entry, looked up): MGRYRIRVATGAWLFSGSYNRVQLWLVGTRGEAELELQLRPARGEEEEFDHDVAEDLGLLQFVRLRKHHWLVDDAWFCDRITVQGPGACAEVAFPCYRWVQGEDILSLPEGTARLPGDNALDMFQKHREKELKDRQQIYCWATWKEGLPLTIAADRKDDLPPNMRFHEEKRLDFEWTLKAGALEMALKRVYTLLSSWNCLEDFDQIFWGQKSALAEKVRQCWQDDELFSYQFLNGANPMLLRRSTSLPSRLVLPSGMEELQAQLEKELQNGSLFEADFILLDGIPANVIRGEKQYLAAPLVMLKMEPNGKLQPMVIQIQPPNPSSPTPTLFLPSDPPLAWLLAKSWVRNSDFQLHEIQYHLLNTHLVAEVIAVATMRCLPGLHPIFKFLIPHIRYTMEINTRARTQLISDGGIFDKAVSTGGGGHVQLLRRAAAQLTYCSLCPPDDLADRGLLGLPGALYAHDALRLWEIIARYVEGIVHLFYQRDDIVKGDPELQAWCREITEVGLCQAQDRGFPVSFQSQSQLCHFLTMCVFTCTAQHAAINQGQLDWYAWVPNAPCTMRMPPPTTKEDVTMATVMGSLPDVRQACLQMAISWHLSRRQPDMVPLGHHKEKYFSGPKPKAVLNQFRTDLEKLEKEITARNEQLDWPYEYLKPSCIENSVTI

SMILES	activity change, negative = inhibition
N#Cc1ccc(CN2CCC3(CC2)C(=O)Nc2ccccc23)cc1	inactive: -27.2%
COc1ccc(C(CN)N2CCCC2)cc1 (stereo not given)	inactive: 11.8% [at 233 µM]
O=C1Nc2ccccc2C12CCN(Cc1ccc(C(F)(F)F)cc1)CC2	inactive: -41.1%
O=C(O)C1=NOC2CN(Cc3cccc(Br)n3)CC12 (stereo not given)	inactive: -4.21%
CN(C)[C@@H]1C(=O)C(C(N)=O)=C(O)[C@@]2(O)C(=O)C3=C(O)c4c(O)cccc4[C@@](C)(O)[C@H]3C[C@@H]12	inactive: -4.18%
O=C1NC2(Cc3ccccc31)CN(CC1CC1)C2	inactive: -11.7% [at 233 µM]
CC1CN2CCCCC2CN1 (stereo not given)	inactive: -6.4% [at 343 µM]
CC1(C)C(C(=O)N2CCC3(CC2)Nc2ccccc2NC3=O)C1(C)C	inactive: -10.7% [at 64.5 µM]
Cc1o[nH]c(=O)c1C[C@H](N)C(=O)O	inactive: 5.45%
O=C(Nc1ccc2n(c1=O)C[C@H]1C[C@@H]2CN(Cc2ccc(F)cc2)C1)c1cccs1	inactive: -9.31% [at 64.5 µM]
Cc1nc(-c2ccccc2Br)cc([C@H]2CN3CC[C@H]2C[C@@H]3CNC(=O)c2ccccc2)n1	inactive: 2.4% [at 64.5 µM]
CCOc1cncc(/C=C/CCNC)c1	inactive: -4.88%
Clc1ccc(N2CCN(CC3[C@H]4CNC[C@@H]34)CC2)nc1 (stereo not given in full)	inactive: -1.21% [at 64.5 µM]
COc1ccc(CC(=O)N2Cc3ccccc3CC3(CCCCN3C)C2)cc1 (stereo not given)	inactive: -22.4%
c1cnc2nc(C3CCNCC3)[nH]c2c1	inactive: -3.26% [at 233 µM]
O=C1Nc2ccccc2CN(Cc2ccncc2)C12CCNCC2	inactive: -15.2%
CN[C@@H](Cc1c[nH]c2ccccc12)C(=O)O	inactive: -2.52%
CNC(C)c1ccc(Cl)cc1 (stereo not given)	inactive: -21.6% [at 233 µM]
CC(C)C1CN2CCCC2CN1 (stereo not given)	inactive: -4.43% [at 233 µM]
O=C(Cc1ccc(Cl)cc1)N1Cc2ccccc2CC2(CCCN2CC2CCNC2)C1 (stereo not given)	inactive: -22.4%
O=[S+]1([O-])NC2(CCN(CC3CCOCC3)C2)COc2ccncc21 (stereo not given)	inactive: 0.957%
Cc1ccc(C(=O)N2[C@H]3CC[C@@H]2c2cnc(-c4ccc(F)cc4)nc2C3)cn1	inactive: 3.41% [at 64.5 µM]
CNC1CCc2ccccc21 (stereo not given)	inactive: -16.9% [at 233 µM]
CCCCC1CN2CCCC2CN1 (stereo not given)	inactive: -7.61% [at 233 µM]
O=C(O)C1=NOC2CN(Cc3ccccc3)CC12 (stereo not given)	inactive: -24.7% [at 233 µM]
CN(C)c1ccc(CN2CCC3(CC2)C(=O)Nc2ccccc23)cc1	inactive: -23.9%
CCN1C[C@]2(COC(=O)c3ccccc3N3C(=O)CC(C)C3=O)CC[C@H](OC)[C@@]34C5C[C@@H]6[C@@H](OC)C[C@@](O)(C5[C@H]6OC)[C@](O)([C@@H](OC)C23)[C@@H]14 (stereo not given in full)	inactive: 3.67%
c1ccc(CC2CN3CCCC3CN2)cc1 (stereo not given)	inactive: 9.21% [at 233 µM]
O=C1Nc2ccccc2C12CCN(CC1CCCCC1)CC2	inactive: -24.2%
c1cc2nc(C3CCNCC3)[nH]c2cn1	inactive: -16.3% [at 233 µM]

From PubChem BioAssay AID1671189 (National Center for Advancing Translational Sciences (NCATS), 2021)
